Test results published in publication PMC4336329 (PLoS ONE, 2015).
About 14,000 (4.5%) of roughly 310,000 compounds showed an effect of 50% or more. Effects have a minus sign here. The list shows a part of the results.
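Further: peak tail current of the secondary pulse compared with the same well before compound.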

Each compound was assayed against human ether-à-go-go-related gene (hERG) potassium channel (human, UniProt Q12809) (assay: primary screen, population patch clamp on CHO cells stably expressing hERG).
Sequence of human ether-à-go-go-related gene (hERG) potassium channel (Q12809 whole entry, looked up): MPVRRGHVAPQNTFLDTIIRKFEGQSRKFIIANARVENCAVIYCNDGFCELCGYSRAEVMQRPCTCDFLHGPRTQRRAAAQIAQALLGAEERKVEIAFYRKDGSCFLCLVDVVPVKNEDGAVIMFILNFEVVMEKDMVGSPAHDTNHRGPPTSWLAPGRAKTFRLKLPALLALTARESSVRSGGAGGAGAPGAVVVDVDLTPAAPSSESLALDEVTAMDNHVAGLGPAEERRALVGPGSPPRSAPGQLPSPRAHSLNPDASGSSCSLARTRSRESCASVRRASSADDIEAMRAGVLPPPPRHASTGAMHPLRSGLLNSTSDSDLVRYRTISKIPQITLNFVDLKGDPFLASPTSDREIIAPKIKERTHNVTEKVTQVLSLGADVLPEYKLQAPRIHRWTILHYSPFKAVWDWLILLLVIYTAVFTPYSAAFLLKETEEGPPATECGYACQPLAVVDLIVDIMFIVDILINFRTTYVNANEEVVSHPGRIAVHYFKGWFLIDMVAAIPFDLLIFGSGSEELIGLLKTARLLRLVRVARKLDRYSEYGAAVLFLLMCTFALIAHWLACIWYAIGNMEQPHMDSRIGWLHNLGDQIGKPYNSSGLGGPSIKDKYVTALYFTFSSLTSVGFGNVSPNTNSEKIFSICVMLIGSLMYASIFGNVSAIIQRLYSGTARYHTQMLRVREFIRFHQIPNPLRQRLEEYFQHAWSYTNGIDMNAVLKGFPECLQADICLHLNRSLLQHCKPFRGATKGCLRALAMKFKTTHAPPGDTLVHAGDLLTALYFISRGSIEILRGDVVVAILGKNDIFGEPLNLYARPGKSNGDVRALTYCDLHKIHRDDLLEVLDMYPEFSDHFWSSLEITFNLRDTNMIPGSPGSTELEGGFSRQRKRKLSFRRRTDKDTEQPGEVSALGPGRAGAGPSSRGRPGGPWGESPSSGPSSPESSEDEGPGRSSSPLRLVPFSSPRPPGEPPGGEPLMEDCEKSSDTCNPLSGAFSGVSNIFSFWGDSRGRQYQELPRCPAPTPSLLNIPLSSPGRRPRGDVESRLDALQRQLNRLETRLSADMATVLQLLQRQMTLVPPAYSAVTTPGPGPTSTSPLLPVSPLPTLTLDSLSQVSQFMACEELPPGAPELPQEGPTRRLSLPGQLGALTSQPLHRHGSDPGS
With CSCCC1NC(=O)N(CC(=O)Nc2cccc3ccccc23)C1=O (centres unmarked) the “hERG current change (%, negative = inhibition) at 10uM” value was 9.36%. With CC(NC(=O)c1cccc(N2CCCC2=O)c1)c1ccc2c(c1)OCCO2 (centres unmarked) the “hERG current change (%, negative = inhibition) at 10uM” value was -8.45%. For CN(Cc1nc(Cc2cccc(F)c2)no1)CC1CCOCC1, the “hERG current change (%, negative = inhibition) at 10uM” value was -5.15%. In the case of COc1ccc(OC)c(S(=O)(=O)Nc2ccc(-c3ccc4nnc(C)n4n3)cc2)c1, the “hERG current change (%, negative = inhibition) at 10uM” value is reported as -40.9%. For COc1ccc(CCNC(=O)C(=O)NN=C2CCCCCCC2)cc1OC, the “hERG current change (%, negative = inhibition) at 10uM” value was 3.73%. For Cc1c(C)c2ccc(OCC(=O)NCCc3c[nH]c4ccccc34)c(C)c2oc1=O, the “hERG current change (%, negative = inhibition) at 10uM” value was 5.65%. For COc1ccc(C(C)NC(=O)c2ccc(Br)cc2)cc1OC (centres unmarked), the “hERG current change (%, negative = inhibition) at 10uM” value was 6.85%. In the case of Cc1oc(-c2ccc(Cl)cc2)nc1CN1CCC(C(=O)N2CCc3ccccc3C2)CC1, the “hERG current change (%, negative = inhibition) at 10uM” value is reported as -74%. For Cc1csc2c(=O)sc(NC(=O)c3ccco3)nc12, the “hERG current change (%, negative = inhibition) at 10uM” value was 10.4%. Cc1cc(C)nc(N(C#N)S(=O)(=O)c2ccccc2Cl)n1 was tested, and the “hERG current change (%, negative = inhibition) at 10uM” value was 4.83%. With COc1ccc(N(CC(=O)N/N=C/c2ccc(N(C)C)cc2)S(=O)(=O)c2ccccc2)cc1 the “hERG current change (%, negative = inhibition) at 10uM” value was 14.5%. In the case of COc1ccc2oc(C(=O)NCCC(C)C)c(C)c2c1, the “hERG current change (%, negative = inhibition) at 10uM” value is reported as -0.78%. In the case of O=C(OCCOc1cccc(Cl)c1)c1ccc2ncsc2c1, the “hERG current change (%, negative = inhibition) at 10uM” value is reported as 8.09%. CC1c2cc3c(cc2CCN1C(=O)c1ccc(C(F)(F)F)cc1)OCCCO3 (centres unmarked) was tested, and the “hERG current change (%, negative = inhibition) at 10uM” value was -9.34%. In the case of Cc1cccc(C(=O)OCC(=O)c2cccc(Br)c2)c1O, the “hERG current change (%, negative = inhibition) at 10uM” value is reported as 8.72%. With COc1ccc(C(C(=O)NC2CCCCC2)N(C(=O)c2sc(C)nc2C)c2ccccc2)cc1 (centres unmarked) the “hERG current change (%, negative = inhibition) at 10uM” value was 16.4%. Cc1nc2ccccc2c(C)c1CC(=O)OC(C)C(=O)NC1(C#N)CCCCC1 (centres unmarked) was tested, and the “hERG current change (%, negative = inhibition) at 10uM” value was -1.38%. In the case of O=C(NNC(=O)c1cnccc1C(F)(F)F)c1ccccc1, the “hERG current change (%, negative = inhibition) at 10uM” value is reported as -1.02%. With CCOc1ccc(C(C)=O)cc1COC(=O)c1cc([N+](=O)[O-])ccc1N1CCOCC1 the “hERG current change (%, negative = inhibition) at 10uM” value was -15%. With CCOc1cccc(/C=N/NS(=O)(=O)c2ccc(C)c([N+](=O)[O-])c2)c1O the “hERG current change (%, negative = inhibition) at 10uM” value was 21.3%. Cc1c(NC(=S)Nc2ccccc2)c(=O)n(-c2ccccc2)n1C was tested, and the “hERG current change (%, negative = inhibition) at 10uM” value was 32.9%. With O=C(CCN1C(=O)/C(=C/c2cccs2)SC1=S)Nc1ccc(C(=O)O)c(O)c1 the “hERG current change (%, negative = inhibition) at 10uM” value was 17.8%. O=C(/C=C/c1ccc(F)cc1)Nc1ccc2[nH]c(=O)[nH]c2c1 was tested, and the “hERG current change (%, negative = inhibition) at 10uM” value was 5.92%. For CC(C)Oc1ccc(C(CC(=O)O)NC(=O)Cc2ccccc2)cc1 (centres unmarked), the “hERG current change (%, negative = inhibition) at 10uM” value was 22.1%. With CC(=O)Nc1cccc(N2C(=O)CCC2=O)c1 the “hERG current change (%, negative = inhibition) at 10uM” value was 15.7%. In the case of O=C(/C=C/c1ccccn1)c1cc(Cl)cc(Cl)c1O, the “hERG current change (%, negative = inhibition) at 10uM” value is reported as -1.41%. With O=C(Nc1cccn2ncnc12)C(Cl)Cl the “hERG current change (%, negative = inhibition) at 10uM” value was 11.1%. CCOC(=O)C1CCN(C(=O)Nc2ccc(Cl)cc2Cl)CC1 was tested, and the “hERG current change (%, negative = inhibition) at 10uM” value was 22.2%. CC1CCN(c2nc(-c3ccc(F)cc3)cc(C(F)(F)F)n2)CC1 was tested, and the “hERG current change (%, negative = inhibition) at 10uM” value was 15.6%. With COc1ccc(S(=O)(=O)NCc2ccc(C(=O)NCCCN3CC(C)CC(C)C3)cc2)cc1 (centres unmarked) the “hERG current change (%, negative = inhibition) at 10uM” value was -28.1%. In the case of COc1ccc(C2=NN(C(=O)CCC(=O)O)C(c3ccc(Br)cc3)C2)cc1 (centres unmarked), the “hERG current change (%, negative = inhibition) at 10uM” value is reported as 29.9%. O=c1oc2ccccc2c(NCc2ccc(Cl)cc2)c1[N+](=O)[O-] was tested, and the “hERG current change (%, negative = inhibition) at 10uM” value was 6.7%. Cc1sc2ncn(CC(=O)NCCCC(=O)NCc3ccc(F)cc3)c(=O)c2c1C was tested, and the “hERG current change (%, negative = inhibition) at 10uM” value was -3.55%. For Cc1ccc(S(=O)(=O)Nc2cc(C)nn2-c2ccccc2)cc1, the “hERG current change (%, negative = inhibition) at 10uM” value was 9.75%. For Cc1ccc(CNC(=O)C2CCCN(S(=O)(=O)c3c(C)n[nH]c3C)C2)cc1 (centres unmarked), the “hERG current change (%, negative = inhibition) at 10uM” value was -3.47%. For O=C(NCC1CCCO1)c1cccc(N2CCCC2=O)c1 (centres unmarked), the “hERG current change (%, negative = inhibition) at 10uM” value was 7.82%. In the case of CCN(CC)c1ccc(NC(=O)COC(=O)c2cccs2)cc1.O=S(=O)(O)O, the “hERG current change (%, negative = inhibition) at 10uM” value is reported as -9.32%. For O=C(Nc1ccc(SC(F)F)cc1)C1=CC=CN2CCS(=O)(=O)N=C12, the “hERG current change (%, negative = inhibition) at 10uM” value was -40.1%. For Cc1ccc2nc3c(nc2c1C)CCCC3, the “hERG current change (%, negative = inhibition) at 10uM” value was 0.0719%. In the case of Cc1nn(-c2ccccc2)c2c1cc1c(=O)n(C)c(=O)nc-1n2-c1ccccc1F, the “hERG current change (%, negative = inhibition) at 10uM” value is reported as -5.94%. In the case of O=C(COc1ccccc1)N(Cc1nnc(-c2ccccc2Cl)o1)C1CC1, the “hERG current change (%, negative = inhibition) at 10uM” value is reported as -15%. CN1/C(=C\C(=O)COc2ccc3c(c2)OCO3)C(C)(C)c2ccccc21 was tested, and the “hERG current change (%, negative = inhibition) at 10uM” value was -2.98%. In the case of Cn1cc(CN2CCc3c([nH]c4ccccc34)C2C(C)(C)C)cn1 (centres unmarked), the “hERG current change (%, negative = inhibition) at 10uM” value is reported as -19.8%. CN1CCN(c2nc3ccccn3c(=O)c2C=C(C#N)C#N)CC1 was tested, and the “hERG current change (%, negative = inhibition) at 10uM” value was 4.08%. For Cc1ccc(S(=O)(=O)NCC2NCCc3ccccc32)cc1 (centres unmarked), the “hERG current change (%, negative = inhibition) at 10uM” value was -13.6%. In the case of CC(C)c1nnc(NC(=O)C2c3ccccc3Oc3ccccc32)s1, the “hERG current change (%, negative = inhibition) at 10uM” value is reported as 2.2%. In the case of Cc1ccc(S(=O)(=O)N2CCN(C(=O)CN3C(=O)c4ccc([N+](=O)[O-])cc4C3=O)CC2)cc1C, the “hERG current change (%, negative = inhibition) at 10uM” value is reported as 1.58%. In the case of COC(=O)C1=C(C(=O)c2ccccc2)C(c2ccc(OC)c(OC)c2)Nc2nnnn21 (centres unmarked), the “hERG current change (%, negative = inhibition) at 10uM” value is reported as 11.6%. For Cc1csc(NC(=O)c2cc3c(s2)-c2ccccc2OC3)n1, the “hERG current change (%, negative = inhibition) at 10uM” value was 3.36%. C/C(CC(=O)Nc1ccc(N(C)C)cc1)=N\NC(=O)c1ccncc1 was tested, and the “hERG current change (%, negative = inhibition) at 10uM” value was 7.2%. O=C(O)CCc1ccc(-c2cccs2)n1Cc1ccco1 was tested, and the “hERG current change (%, negative = inhibition) at 10uM” value was -12.4%. In the case of O=C1Nc2ccc(Br)cc2C12OCCO2, the “hERG current change (%, negative = inhibition) at 10uM” value is reported as 15.9%. For O=C(NCc1ccco1)c1nc2c(nnn2Cc2ccccc2Cl)c(=O)[nH]1, the “hERG current change (%, negative = inhibition) at 10uM” value was -0.774%. With c1ccc(C2C3=C(CCCC3)Nc3ncnn32)cc1 (centres unmarked) the “hERG current change (%, negative = inhibition) at 10uM” value was 0.709%. In the case of COc1ccc(Cc2nc3ccc(C(=O)N(C)C(C)c4ccon4)cc3o2)cc1 (centres unmarked), the “hERG current change (%, negative = inhibition) at 10uM” value is reported as -3.64%. CC(=NCc1cccnc1)c1c(O)n(-c2ccccc2)c(=O)[nH]c1=O was tested, and the “hERG current change (%, negative = inhibition) at 10uM” value was 21%.
